Measured values: PMC10668032
The list shows a part of the results. At the low end of the ranking the order means little.

Each sequence was assayed against SIX1-Q177R homeodomain (UniProt Q15475) (assay: universal protein binding microarray). Details: Universal all-10-mer PBM (8x60K, AMADID 030236), 300 nM GST-tagged protein, Alexa Fluor 488 anti-GST; buffer, salt, pH and temperature not stated; high values mean tight binding; most listed sequences are background and not binding sites; double strand, one strand shown.

Sequence	binding signal
AGAAATAC	-0.183 E-score
GAGGGTGA	0.00643 E-score
GACGCCTA	0.0183 E-score
ATGGGCGG	0.0131 E-score
GACTAAAA	-0.156 E-score
ATACGCAC	0.0577 E-score
ACTCTTCT	0.114 E-score
ACACAACG	0.121 E-score
GAGCTAGA	-0.13 E-score
CAATCCAA	-0.124 E-score
CCCATGGC	0.0361 E-score
GACTATAC	0.00243 E-score
CATGTGGG	-0.0923 E-score
CCGTACAA	-0.0953 E-score
AAGTCACT	-0.085 E-score
CTTAGGGA	0.151 E-score
CGGCGTCA	0.219 E-score
CTGCGTAC	0.0915 E-score
GACACCCA	0.479 E-score
CGTCATAA	0.0374 E-score
CACTCCAC	0.191 E-score
CCGTCTAG	-0.0319 E-score
GGGGTTTA	0.281 E-score
AGGGCTCA	-0.117 E-score
CCTTCAGC	-0.18 E-score

Sequence	binding signal
AACTTGCG	-0.0249 E-score
TACAACAA	-0.0349 E-score
TGATCGAA	-0.0513 E-score
GAAGGGCA	-0.112 E-score
ATTCAACG	-0.0463 E-score
GCTACGAA	-0.0335 E-score
GCACGAGC	0.051 E-score
AAGCTATA	-0.236 E-score
TAATAGGA	-0.0923 E-score
CGATAAGC	-0.0308 E-score
CGGGCCCG	-0.0101 E-score
GCCCAGGC	-0.0578 E-score
AGAAAACT	-0.112 E-score
CACGAATG	0.00144 E-score
GGGTTTCA	0.15 E-score
AGATCGAC	-0.0333 E-score
ATCAATTC	-0.18 E-score
AGAGAGCA	-0.138 E-score
GATGGCCC	-0.0244 E-score
AAAAAGCA	-0.293 E-score
AAGCGCAC	0.0562 E-score
AAACTGGA	-0.0577 E-score
AGCAGGAA	-0.172 E-score
ACGGGTTC	0.0664 E-score
CAATAGCG	0.137 E-score

Sequence	binding signal
ACTGTCAA	-0.182 E-score
ATAGCTCG	-0.164 E-score
GCCCTTCC	-0.187 E-score
CACGCCAA	0.143 E-score
AAAGATTT	-0.308 E-score
AGAGTGGC	-0.15 E-score
AAGAAGCT	-0.266 E-score
AACCTACA	0.192 E-score
ATAAGAGC	-0.187 E-score
CCACGCGC	-0.147 E-score
GATGGTCA	-0.316 E-score
CAAAAAAA	-0.173 E-score
ACAAGCGG	-0.00626 E-score
GTGCTCCA	0.183 E-score
ATAACCCG	0.18 E-score
CTCCTTCC	0.0538 E-score
GCAGAGCC	-0.392 E-score
TGTTGAAA	0.219 E-score
ACTAGCTC	-0.16 E-score
CTAGCTCC	0.0368 E-score
AACACTAC	0.381 E-score
ACTAAGCT	-0.0795 E-score
GAACCGGC	-0.0855 E-score
CTCCGTAC	0.037 E-score
CACGATTA	0.105 E-score

Sequence	binding signal
CTTCCAGA	-0.122 E-score
TGATCTAA	-0.0979 E-score
GCATCAAA	-0.084 E-score
AAACACGT	0.307 E-score
ATACTAAC	0.0329 E-score
AAATTGCT	-0.0646 E-score
GAAGAGGC	-0.103 E-score
CTGAGGAC	-0.119 E-score
TGAACACA	0.173 E-score
AGGAGTCC	0.094 E-score
GCCAGACC	-0.244 E-score
AGACGGTA	-0.04 E-score
AACGAGAA	-0.0893 E-score
AACCCACG	0.068 E-score
GCGCATAA	-0.149 E-score
AACACATT	0.0624 E-score
AGGATATC	0.0311 E-score
CCATCTCC	-0.0251 E-score
CAATTGAA	-0.165 E-score
AGAGGTAT	0.221 E-score
CAGGGCAG	-0.196 E-score
ATGTAGAC	0.00475 E-score
ATACAACA	0.0398 E-score
GCTGGCCA	-0.145 E-score
GAACACCA	0.468 E-score

Sequence	binding signal
CGCCTCCA	0.019 E-score
CATCCAGG	-0.187 E-score
GCCCCCCC	-0.0199 E-score
ACGAACCT	-0.0708 E-score
CGCTCCAA	-0.0383 E-score
ACCGCAGC	0.0693 E-score
AGTTGTAG	-0.228 E-score
ACCCAGAT	0.139 E-score
ATCCGAAA	-0.0381 E-score
AACTGGAA	-0.0887 E-score
AAGCTGGA	-0.0562 E-score
AAGAGGTC	-0.172 E-score
ACTGAGCG	0.0957 E-score
CTCGTAAC	-0.0126 E-score
CATGGTGA	0.0347 E-score
GATATTAC	-0.0348 E-score
ACACTGTG	0.381 E-score
ACCACCGT	0.0559 E-score
AAGCTCAG	-0.247 E-score
AAGACTCC	-0.0556 E-score
AGTTGGGG	0.16 E-score
TACTCGGA	0.139 E-score
AGGTATTA	-0.0192 E-score
ACTCGCGA	0.104 E-score
AAATTTTA	-0.179 E-score

Sequence	binding signal
AATTCGCC	-0.187 E-score
ATCCGACA	0.238 E-score
AGCAAGAT	-0.0823 E-score
AAGCAGCG	0.043 E-score
TCAGGGCA	-0.13 E-score
AATGCGAG	-0.212 E-score
TACCCCAA	0.209 E-score
ATCATGGG	-0.0509 E-score
CGTGAGTC	-0.08 E-score
AAAGAGAT	-0.239 E-score
CGCGCGAC	0.0131 E-score
CTCATATA	-0.0223 E-score
GTAAGCTA	0.0288 E-score
GACCCGGC	0.0551 E-score
TCTCGGAA	-0.105 E-score
AATGGAAT	-0.149 E-score
GAACCACC	-0.0517 E-score
ACCCGCAG	0.103 E-score
AGCATCAC	-0.145 E-score
AACCCCCT	0.276 E-score
ATCCAGCC	-0.0219 E-score
ATCTCGTG	0.0859 E-score
ATCCTAGG	0.0725 E-score
AGAGTATC	0.238 E-score
CTTGATGA	-0.091 E-score

Sequence	binding signal
CCCCGGAG	0.261 E-score
AAGCCGAA	0.0488 E-score
CGACTGTC	-0.0732 E-score
AGCGGAAA	-0.308 E-score
AATGCGGC	-0.028 E-score
GATCAGGC	-0.0652 E-score
AAATTGAT	-0.065 E-score
TCCGCGGA	0.0601 E-score
ATGGCCGC	-0.286 E-score
GAAGGCCC	-0.338 E-score
AAACCCAA	-0.0767 E-score
AGCGATAG	-0.203 E-score
CTTCGCAA	-0.149 E-score
GTCTCCAA	0.0116 E-score
CCCCGAAC	0.181 E-score
AGTGCCAA	-0.0609 E-score
TCCATACA	0.0163 E-score
ACGAAAGC	-0.0155 E-score
GGTAATTA	-0.0806 E-score
CGTTCGCA	-0.0885 E-score
AGCCGTAG	0.0304 E-score
TCTTCAAA	-0.0188 E-score
